Results on ten compounds are retold here after the antibiotic and cytotoxicity screens of Wong et al. (2023).

One experiment has as its system HSkMC. Kind of experiment: cytotoxicity call (relative viability < 0.9). The following applies: 10 µM.
The test system of another experiment is HepG2. Kind of experiment: cytotoxicity call (relative viability < 0.9). The settings on record: 10 µM.
Another experiment relates to S. aureus RN4220. Kind of experiment: growth inhibition call (relative growth <= 0.2). The settings on record: 50 µM.

Some of the results follow.

Take `O=C(CN1CCOCC1)N[C@@H]1CC[C@H](CCn2cc(C3CC3)nn2)O[C@@H]1CO`: the cytotoxicity call with HSkMC and in the experiment on HepG2 was “inactive” throughout. The growth inhibition call in the experiment on S. aureus RN4220 is “inactive”.
For the compound `O=C(O)CCc1nnc2ccc(Cl)nn12`, the cytotoxicity call in the experiment on HSkMC and with HepG2 was “inactive” in each case. The growth inhibition call with S. aureus RN4220 is “inactive”.
With `C[C@H]1CN([C@@H](C)CO)C(=O)Cc2cc(NS(=O)(=O)c3cn(C)cn3)ccc2O[C@H]1CN(C)C`, the cytotoxicity call in the experiment with HSkMC and in the experiment on HepG2 was “inactive” in each case. In addition, in the experiment on S. aureus RN4220, the growth inhibition call was “inactive”.
Take `C[C@H](CO)N1C[C@H](C)[C@H](CN(C)C(=O)CCC(F)(F)F)OCCCC[C@H](C)Oc2ccc(NC(=O)NC3CCCCC3)cc2C1=O`: the cytotoxicity call in the experiment with HSkMC and in the experiment on HepG2 was “inactive” each time. Besides, the growth inhibition call with S. aureus RN4220 was “inactive”.
Take `C[C@@H]1CN([C@@H](C)CO)C(=O)c2cc(NC(=O)Nc3cccc4ccccc34)ccc2O[C@@H](C)CCCCO[C@H]1CN(C)C(=O)Nc1cccc2ccccc12`: the cytotoxicity call with HSkMC and with HepG2 was “inactive” in each case. Besides, the growth inhibition call with S. aureus RN4220 was “inactive”.
In the case of `C[C@@H]1CN([C@@H](C)CO)C(=O)c2cc(NC(=O)Cc3ccccc3)ccc2O[C@H]1CN(C)Cc1ccc(Oc2ccccc2)cc1`, the cytotoxicity call in the experiment with HSkMC and with HepG2 was “inactive” in each case. For the same compound, in the experiment with S. aureus RN4220, the growth inhibition call is “inactive”.
With `Cc1ccc(-c2c[nH]c(=S)[nH]2)cc1`, the cytotoxicity call in the experiment on HSkMC and with HepG2 was “inactive” in each case. Besides, in the experiment with S. aureus RN4220, the growth inhibition call is “inactive”.
Take `Cc1cccc(CN2CCN(C(c3ccccc3)c3ccc(Cl)cc3)CC2)c1.Cl.Cl` (stereo not given): the cytotoxicity call in the experiment on HSkMC and in the experiment with HepG2 was “inactive” throughout. Also, the growth inhibition call in the experiment on S. aureus RN4220 is “inactive”.
Turning to `C[C@H]1CN([C@@H](C)CO)S(=O)(=O)c2ccc(C#CC3(O)CCCC3)cc2O[C@@H]1CN(C)C(=O)Cc1ccccc1`, the cytotoxicity call in the experiment on HSkMC (human skeletal muscle cells) and in the experiment with HepG2 was “inactive” each time. Further, the growth inhibition call with S. aureus RN4220 is “inactive”.
Consider `Cc1ccccc1S(=O)(=O)N(C)C[C@@H]1Oc2ccc(NC(=O)Nc3cc(Cl)cc(Cl)c3)cc2CC(=O)N([C@@H](C)CO)C[C@@H]1C`, for which the cytotoxicity call with HSkMC is “active”. Also, the cytotoxicity call with HepG2 is “inactive”. In addition, the growth inhibition call in the experiment on S. aureus RN4220 is “inactive”.
